According to ChEMBL document CHEMBL1201862, “PubChem BioAssay data set” (2004):

System: NCI-H322M
Assay: growth of human tumour cells (NCI), 48 h

Row | Structure (SMILES) | GI50
1 | COC1=C(OC)C23CCc4ccc(OC)c(O)c4C2(CCN3)CC1=O (stereo unspecified) | inactive: > 100 µM
2 | C=CC(=O)N1C/C(=C\c2ccc(Cl)cc2)C(=O)/C(=C/c2ccc(Cl)cc2)C1 | active: 0.94 µM
3 | CC(=O)OCC1OC(n2c3c(c(-c4ccco4)c(C#N)c2=S)CCCC3)C(OC(C)=O)C(OC(C)=O)C1OC(C)=O (stereo unspecified) | inactive: > 100 µM
4 | O=CC1=CCCN(CCc2c[nH]c3ccccc23)C1 | inactive: 52.4 µM
5 | CCCCCCCCCCCCCCCCOC[C@H](COC(c1ccccc1)(c1ccccc1)c1ccccc1)O[PH](=S)OC (stereo partly specified) | inactive: > 100 µM
6 | CC(SC(=S)N(C)C)C(=O)Nc1nnc(-c2ccc(Cl)cc2)o1 (stereo unspecified) | inactive: 40.8 µM
7 | O=C(O)c1nc(-c2ccccn2)c(-c2ccccn2)nc1C(=O)O | inactive: 1.31 µM
8 | COC(=O)/C(=N\NC(N)=O)C(C(=O)C(=O)Nc1ccccc1C(=O)OC)c1nc2ccc(C(=O)c3ccccc3)cc2nc1O (stereo unspecified) | inactive: > 100 µM
9 | CCN(CC)CCC(=O)/C=C/c1ccc(Cl)c(Cl)c1 | inactive: > 10 µM
10 | CN(N=O)C(=O)N(N)CCCCC(NC(=O)OCc1ccccc1)C(=O)OCc1ccccc1 (stereo unspecified) | inactive: > 100 µM
11 | CC1=C(C)C(=O)C(C2=CC(=O)C=CC2=O)=C(C2=CC(=O)C=CC2=O)C1=O | inactive: > 100 µM
12 | Cc1cccc2c(=O)c3cccc([C@H](C)C(=O)O)c3oc12 | inactive: > 100 µM
13 | COc1cc(O)c(C(=O)/C=C/c2ccccc2)c(OC)c1 [FLAVOKAWAIN B] | inactive: 5.16 µM
14 | COc1cccc(N[C@@H]2c3cc4c(cc3C(c3cc(OC)c(O)c(OC)c3)[C@H]3C(=O)OCC32)OCO4)c1 (stereo partly specified) | inactive: 7.66 µM
15 | COC(=O)[C@]1(C)CCC[C@@]2(C)C1CCC1=CC3(C(C)C)CCC12OO3 (stereo partly specified) | inactive: > 100 µM
16 | Cc1cc(C)nc(NC(P(=O)(O)O)P(=O)(O)O)n1 | inactive: > 100 µM
17 | CCOC(=O)c1cccc([N+](=O)[O-])c1N | inactive: > 100 µM
18 | CCc1ccc(Nc2cc(=O)[nH]c(SCc3ccccc3)n2)cc1 | inactive: > 100 µM
19 | O=C(O)CN1C(=O)C(Cc2ccc(O)cc2)N=C(c2cccc(O)c2)c2ccccc21 (stereo unspecified) | inactive: > 100 µM
20 | Nc1ccc(S(=O)(=O)Nc2nc3ccccc3nc2N2CCCCCC2)cc1 | inactive: 34.8 µM
21 | O=C1C=Cc2c(-c3ccccc3)oc3cccc1c23 | inactive: 31.8 µM
22 | CN1C(=O)c2cccc3c([N+](=O)[O-])ccc(c23)C1=O | inactive: 15.6 µM

Row | Structure (SMILES) | GI50
23 | Brc1cccc(/C=C/CN2CCN(CCOC(c3ccccc3)c3ccccc3)CC2)c1 | inactive: 16.9 µM
24 | Nc1nc(O)nc2snnc12 | inactive: > 100 µM
25 | O=C1CCC(=O)C12CCc1cccc(O)c12 | inactive: > 10 µM
26 | CC(CN1c2ccccc2Sc2ccccc21)N(C)C (stereo unspecified) [PROMETHAZINE HYDROCHLORIDE] | inactive: 20.5 µM
27 | Cc1ccc(CC(=O)Nc2ccc(NC(=O)CNC(=O)/C=C/c3ccc(-c4ccccc4)cc3)cc2C(=O)c2ccccc2)cc1 | inactive: 5.21 µM
28 | c1ccc2c(C3NCCc4nc[nH]c43)cccc2c1 (stereo unspecified) | inactive: > 100 µM
29 | N#CCCN(CCC#N)c1ccc(/C=C2\N=C(c3ccccc3)N(c3ccccc3)C2=O)cc1 | inactive: > 100 µM
30 | Cc1cn(C2CC(O)C(CO)C2C)c(=O)[nH]c1=O (stereo unspecified) | inactive: > 100 µM
31 | O=C1CC(NC(=O)C(F)(F)F)c2c(Br)sc(N3CCC(c4ccccc4)CC3)c21 (stereo unspecified) | inactive: 18.8 µM
32 | CCCCCCCCCCCCOP(=O)(O)OP(=O)(O)OCC1OC(n2ccc(N)nc2=O)CC1O (stereo unspecified) | inactive: > 100 µM
33 | CCCc1c(OC)c(=O)c2c(O)cc(OC)c3c4c(OC)cc(O)c5c(=O)c(OC)c(CCC)c(c1c23)c54 | inactive: 11.3 µM
34 | CC(C)(C)OC(=O)N1CCC2(C)CC(=O)CC=C12 (stereo unspecified) | inactive: > 100 µM
35 | CCOc1ccc(NC(=O)C2=C(C)NC(C)=C(C(=O)Nc3ccc(OCC)cc3)C2c2ccccc2)cc1 | inactive: 47.3 µM
36 | O=C1NC2C(=CC(O)C(O)C2O)c2cc3c(cc21)OCO3 (stereo unspecified) | active: 0.43 µM
37 | Cc1cccc(/C=N/NC(=S)NCc2ccccn2)n1 | inactive: 33.7 µM
38 | COc1ccc2nc3cc([N+](=O)[O-])ccc3c(Nc3ccc(S(=O)(=O)N=C(N)N)cc3)c2c1 | inactive: 22.9 µM
39 | CCOC(=O)c1c(OCC)[nH]c(=O)c(C(c2cccs2)c2c(O)c(C(=O)OCC)c(OCC)[nH]c2=O)c1O | inactive: 14.4 µM
40 | OCC12C3C4C5C3C1C5C42 (stereo unspecified) | inactive: > 100 µM
41 | C/C(=N\n1c(Cc2ccccc2)n[nH]c1=O)c1ccccc1 | inactive: > 100 µM
42 | C=CCc1c(O)c2nsnc2c2nsnc12 | inactive: 9.73 µM
43 | Nc1ccc2cc3ccc(N)cc3nc2c1 [PROFLAVINE SULFATE] | inactive: 1.35 µM and inactive: 1.8 µM
44 | C[C@@H]1CC[C@@]2(OC1)O[C@H]1C[C@H]3[C@@H]4CC[C@H]5C[C@@H](OC6OC(CO)C(OC7OC(CO)C(O)C(OC8OCC(O)C(O)C8O)C7OC7OC(CO)C(O)C(O)C7O)C(O)C6O)[C@H](O)C[C@]5(C)[C@H]4CC[C@]3(C)[C@H]1[C@@H]2C (stereo partly specified) | inactive: 11.9 µM

Row | Structure (SMILES) | GI50
45 | COc1cc(OC)nc(Nc2c(C#N)c3nc4ccccc4n3c3ccccc23)n1 | inactive: 21.6 µM
46 | O=Cc1ccccc1COC(=O)c1cc(C(=O)OCc2ccccc2C=O)c(C(=O)OCc2ccccc2C=O)cc1C(=O)OCc1ccccc1C=O | inactive: > 100 µM
47 | CCCCN1C(=O)CS/C1=N/Nc1nc2c([nH]1)c(=O)n(C)c(=O)n2C | inactive: 5.09 µM
48 | CCOP(=O)(OCC)/C(C#N)=C/c1c(C)[nH]c2ccccc12 | inactive: > 100 µM
49 | COc1ccc(C2Oc3c(OC)cc(CCCO)cc3C2CO)cc1OC (stereo unspecified) | inactive: > 100 µM and inactive: 51.8 µM
50 | O=S(=O)(O)c1cccc2ccc(O)c(/N=N\c3ccc(S(=O)(=O)c4ccc(/N=N/c5c(O)ccc6cccc(S(=O)(=O)O)c56)cc4)cc3)c12 | inactive: > 100 µM
51 | O=C1CC2CC3OC3[C@H]3c4cc5c(cc4C(=O)N1C23)OCO5 (stereo partly specified) | inactive: > 100 µM
52 | CCOC(=O)NC(=O)c1cn(C2OC(CO)C(O)C2O)c(=O)[nH]c1=O (stereo unspecified) | inactive: > 100 µM
53 | CC(=O)OC12CC(C(F)(F)F)(C(F)(F)F)OC1(OC(C)=O)CC(C(F)(F)F)(C(F)(F)F)O2 (stereo unspecified) | inactive: 1.94 µM
54 | Brc1ccc(-c2ccc(-c3ccc(-c4ccc(Br)s4)s3)s2)s1 | inactive: > 100 µM
55 | CCOC(=O)C1C(=O)CC(C)(O)C(C(=O)OCC)C1c1ccc(O)c(OC)c1 (stereo unspecified) | inactive: > 100 µM
56 | O=C1C(Cl)=C(Nc2ccc(OC(F)(F)F)cc2)C(=O)c2c(O)ccc(O)c21 | active: 0.912 µM
57 | COc1ccc2/c(=C/c3ccc(N(C)C)cc3)c3cc(-c4ccccc4)[n+](C)n3c2c1 | active: 0.745 µM
58 | CCOC(=O)c1nc2ccc(C(F)(F)F)cc2nc1Oc1ccc(C#N)cc1 | inactive: 36.8 µM
59 | CCOC(=O)c1c(C)c(C)n2c1NC(=O)C2 | inactive: > 100 µM
60 | COc1ccc(OC)c(NC(=O)C2=C(C)NC(C)=C(C(=O)Nc3cc(OC)ccc3OC)C2c2ccco2)c1 | inactive: > 100 µM
61 | CN1OC(CO)CC12C1CC3CC(C1)CC2C3 (stereo unspecified) | inactive: > 100 µM
62 | CCCCN(CCCC)CC(C(=O)Nc1ccc([N+](=O)[O-])cc1[N+](=O)[O-])/C(C)=N\NC(=O)c1ccncc1 (stereo unspecified) | inactive: > 100 µM
63 | COc1nc(C(Cl)(Cl)Cl)c(Cl)c(O)c1Cl | inactive: > 100 µM
64 | O=C(Cc1nc2ccccc2s1)NC12CC3CC(CC(C3)C1)C2 | inactive: > 100 µM
65 | Nc1ncnc(NC2C=C(CO)C(O)C2O)c1[N+](=O)[O-] (stereo unspecified) | inactive: > 100 µM
66 | C=CCn1c2ccccc2c2c(C)c3cnccc3c(C)c21 | inactive: 10.6 µM

Row | Structure (SMILES) | GI50
67 | Cn1cnc([N+](=O)[O-])c1Sc1nc2ccccc2[nH]1 | inactive: 21 µM
68 | CCN1C(NCCO)=NS(=O)(=O)c2ccccc21 | inactive: > 100 µM
69 | N=C(N)NS(=O)(=O)c1ccc(NC(=O)c2cccc3c(Nc4ccc(S(=O)(=O)N=C(N)N)cc4)c4ccccc4nc23)cc1 | inactive: 95.5 µM
70 | CCCCC1C=Cn2c(=O)oc3c(OC(C)C)c(C)c(O)c1c32 (stereo unspecified) | inactive: 2.59 µM
71 | CN(C(=O)C1=CCC2(CC1)OCCO2)c1ccccc1OS(=O)(=O)C(F)(F)F | inactive: > 100 µM
72 | C/C(=C/CNc1ncnc2c1ncn2CCC(=O)O)CO | inactive: > 100 µM
73 | CC1CC(C)C(C(O)CC2CC(=O)N(c3ccccc3)C(=O)C2)C(O)C1 (stereo unspecified) | inactive: > 100 µM
74 | O=C(COC(=O)c1cccc2c(=O)c3ccccc3[nH]c12)Nc1ccc(S(=O)(=O)Nc2ncccn2)cc1 | inactive: 43.7 µM
75 | Cc1cc(-c2ccc(C(=O)C(Cl)(Cl)Cl)[nH]2)on1 | inactive: 25.9 µM
76 | CC(C)CC(NC(=O)C(N)CCC(=O)OCc1ccccc1)C(=O)NC(COCc1ccccc1)C(=O)NC(Cc1ccccc1)C(=O)ON1C(=O)CCC1=O (stereo unspecified) (H-E(OBn)LS(Bn)F-OSu; configuration not given here) | inactive: 31.5 µM
77 | N=C(N)n1ncc(Cl)c(Cl)c1=O | inactive: 12.4 µM
78 | CC(=O)N1c2ccccc2C23CCN4CC5=CCOC(O)C(C5CC42)C13 (stereo unspecified) | inactive: > 100 µM
79 | CCOC(=O)c1c(-c2ccc(OC)c(O)c2)c(C#N)c(=S)n(C2OC(COC(C)=O)C(OC(C)=O)C(OC(C)=O)C2OC(C)=O)c1-c1ccccc1 (stereo unspecified) | inactive: > 100 µM
80 | N#CC(C(=O)C(=O)NCCCNC(=O)C(=O)C(C#N)c1ccccc1)c1ccccc1 (stereo unspecified) | inactive: > 100 µM
81 | CC(=O)OC1[C@@H](OC(C)=O)CN(OCc2ccccc2)C[C@H]1OC(C)=O (stereo partly specified) | inactive: > 100 µM
82 | CC(=O)OC(C)(C)/C=C/C(=O)[C@](C)(O)[C@H]1[C@H](O)C[C@@]2(C)[C@@H]3CC=C4[C@@H](C[C@H](O)[C@H](O)C4(C)C)[C@]3(C)C(=O)C[C@]12C | active: 1.09 µM
83 | COc1ccc(C(=O)C2=NON3OC23C(=O)c2ccc(OC)cc2)cc1 (stereo unspecified) | inactive: 33.7 µM
84 | COC(=O)c1ccccc1/C=C1\Cc2c(C)cc(C)cc2C1=O | inactive: > 100 µM
85 | CCCCCCCC(=O)OCC1OC(n2cc(F)c(=O)[nH]c2=O)C(NC(=O)OCc2ccccc2)C(O)C1O (stereo unspecified) | inactive: > 100 µM
86 | CC1=C(C)CC(C#N)(C#N)C(C#N)(C#N)C1 | inactive: > 10 µM

Values joined by “and” are separate entries in the source; they are usually repeats but may differ in a detail not shown here. Equal entries are not always repeated. Structures can show the parent of a compound that is named as a salt.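 Tested at 5 concentrations; 48 h exposure; 96-well plates; endpoints linearly interpolated, else capped at highest concentration. The concentration for 50% growth inhibition is given as GI50.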 Active and inactive are the calls of the source. Rule as the data show it: active = GI50 up to about 1.1 µM and inactive = higher. Peptide text beside a SMILES is read from it. * marks the point of attachment. OSu = O=C1CCC(=O)N1O*; OBn = c1ccc(CO*)cc1; Bn = c1ccc(C*)cc1
